# Laboratory results as given in PubChem BioAssay AID1030 (National Center for Advancing Translational Sciences (NCATS), 2008).
# Where “and” joins values, the source holds several entries; their conditions need not be identical. Equal values may be shown once. In all, about 220,000 compounds went through this assay and about 16,000 (7.3%) were called active. The inconclusive results got no clear call from the source; some entries with a clear call stand among them for comparison. Calls come from the whole dose curve; as a rule, active = well fitted inhibition curve with a large enough effect (not every such curve was filed as active); inconclusive = small, poorly fitted or top-dose-only effect, or another doubt; inactive = no such curve, though single readings can be large or run the other way. Where the call is inconclusive, the potency comes from a doubtful curve fit.
# Biological target: Aldehyde dehydrogenase 1A1 (Homo sapiens) (UniProt P00352)
# Test: qHTS Assay for Inhibitors of Aldehyde Dehydrogenase 1 (ALDH1A1)
# Details: Purified ALDH1A1, NADH fluorescence, propionaldehyde substrate; series mostly up to 75.3 µM
# Potency is the fitted concentration of half-maximal effect; tags give direction and shape of the fitted curve.
# Sequence of UniProt P00352 (P00352 whole entry, looked up): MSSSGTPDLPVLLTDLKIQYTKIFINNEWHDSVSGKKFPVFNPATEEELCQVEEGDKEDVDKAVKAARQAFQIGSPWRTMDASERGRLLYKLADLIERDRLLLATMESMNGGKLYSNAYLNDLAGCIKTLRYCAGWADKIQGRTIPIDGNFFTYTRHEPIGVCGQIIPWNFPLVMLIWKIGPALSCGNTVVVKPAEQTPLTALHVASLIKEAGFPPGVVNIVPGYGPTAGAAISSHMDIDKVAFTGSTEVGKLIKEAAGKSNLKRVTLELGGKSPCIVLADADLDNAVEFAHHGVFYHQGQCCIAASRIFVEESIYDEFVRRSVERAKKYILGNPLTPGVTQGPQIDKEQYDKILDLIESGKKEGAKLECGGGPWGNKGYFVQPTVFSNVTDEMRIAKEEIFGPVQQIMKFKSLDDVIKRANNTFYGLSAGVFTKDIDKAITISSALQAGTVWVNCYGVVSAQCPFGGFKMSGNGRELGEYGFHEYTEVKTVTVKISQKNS
row,Structure (SMILES),Potency
1,CCc1cc(CNC(=O)CC2C(=O)NCCN2Cc2cccc(OC)c2)on1 (stereo not drawn),"inconclusive: 39.8 µM [inhibitor, single point]"
2,COc1c(O)cc2c(=O)oc3c(OC)c(O)cc4c(=O)oc1c2c34,"inconclusive: 10 µM [inhibitor, partial curve]"
3,COc1ccc2ccc(=O)oc2c1CC=C(C)C,"inconclusive: 44.7 µM [inhibitor, single point] and inconclusive: 28.2 µM [inhibitor, partial curve]"
4,CCOC(=O)c1c(-c2ccc(-c3ccccc3)cc2)csc1NC(=O)C1C2CCC(O2)C1C(=O)O (stereo not drawn),"inconclusive: 25.1 µM [inhibitor, single point]"
5,CCn1nc(C)c(CNC(=O)CC2C(=O)NCCN2CC(C)C)c1C (stereo not drawn),"inconclusive: 39.8 µM [inhibitor, single point]"
6,COc1ccc(C(=O)NCCn2cc(SCC(=O)NCc3ccco3)c3ccccc32)cc1,active: 25.1 µM
7,O=C(Nc1ccc(NC(=O)c2ccco2)nc1)c1ccccn1,active: 14.1 µM
8,CCC(=O)N(Cc1cc2cc(OC)ccc2[nH]c1=O)c1cccc(C)c1,"inconclusive: 35.5 µM [inhibitor, single point]"
9,CN1CC(=O)N/C1=N\C(=O)Nc1ccc2c(c1)N(C)C(=O)CS2,"inconclusive: 39.8 µM [inhibitor, single point]"
10,CCOc1ccc(NC(=O)CN2CCN(CC(=O)Nc3ccc4c(c3)OCO4)CC2)cc1,"inconclusive: 39.8 µM [inhibitor, single point]"
11,COc1ccc2c(c1)NC(=O)CC(c1ccccc1)=N2,"inconclusive: 14.1 µM [inhibitor, partial curve]"
12,CC1CN(C(=O)c2ccc(COc3ccc(C(C)C)cc3)o2)CC(C)O1 (stereo not drawn),active: 28.2 µM
13,O=C(CCCc1ccccc1)c1ccc2c(c1)OCCO2,"inconclusive: 39.8 µM [inhibitor, single point]"
14,N#Cc1nc(-c2ccccc2Cl)oc1N1CCOCC1,"inconclusive: 28.2 µM [inhibitor, partial curve]"
15,COCCCN1C(=O)c2[nH]nc(-c3cc(C)cc(C)c3O)c2C1c1ccc(O)c(OC)c1 (stereo not drawn),inactive
16,CNC(=O)c1cc(C(=O)c2c(Cl)cccc2Cl)c[nH]1,inactive
17,O=C(O)/C(=C/c1ccco1)NC(=O)c1ccccc1,inactive
18,CCOC(=O)c1oc2ccc(CNC3CCCCC3)c(Cl)c2c1C,"inconclusive: 14.1 µM [inhibitor, partial curve]"
19,CC(C)CCNC(=S)Nc1ccc([N+](=O)[O-])cc1,"inconclusive: 31.6 µM [inhibitor, single point]"
20,CCOC(=O)c1ccc(-c2c(C(=O)OCC)oc3cc(O)c(CC)cc3c2=O)o1,active: 10 µM
21,COc1ccc2nc(Nc3nc(-c4ccncc4)cs3)sc2c1,inactive
22,CCN(CC)c1ccc2c(C)cc(=O)oc2c1,"inconclusive: 28.2 µM [inhibitor, partial curve]"
23,COc1ccc(NC(=O)Cc2ccc(-c3ccccc3)cc2)cn1,inactive

row,Structure (SMILES),Potency
1,COc1ccc(Nc2nc(Nc3ccc(OC)cc3OC)nc(N3CCN(C)CC3)n2)c(OC)c1,inactive
2,CCCS(=O)(=O)c1c(S(=O)(=O)CCC)c2cnccn2c1C(=O)c1ccc(CC)cc1,"inconclusive: 23.8 µM [inhibitor, single point]"
3,O=S(=O)(c1ccccc1)c1ccc(NCc2ccco2)cc1,"inconclusive: 37.7 µM [inhibitor, single point]"
4,CCOc1ccccc1N1CCN(C/C=C/c2ccc(N(C)C)cc2)CC1,"inconclusive: 28.2 µM [inhibitor, single point]"
5,COc1cccc2cc(C(=O)C3=C(O)C(=O)N(Cc4ccco4)C3c3cccnc3)oc12 (stereo not drawn),active: 5.62 µM
6,COc1cccc([C@@H]2Oc3ccc(OC)cc3C(=O)[C@H]2OC(=O)Nc2ccc(C)c(Br)c2)c1,"inconclusive: 39.8 µM [inhibitor, single point]"
7,CCS(=O)(=O)c1ccc(O)c(NC(=O)COc2ccccc2)c1,"inconclusive: 39.8 µM [inhibitor, single point]"
8,O=C(c1ccc(Cl)cc1)c1c[nH]c(C(=O)C(Cl)(Cl)Cl)c1,active: 8.91 µM
9,O=C1/C(=C/c2ccc(N3CCCC3)cc2)NC(=S)N1C1CC1,active: 15.8 µM
10,COc1cccc(C2=CC(c3ccc(C)cc3)n3ncnc3N2)c1 (stereo not drawn),"inconclusive: 39.8 µM [inhibitor, single point]"
11,CC(C)NS(=O)(=O)c1ccc(OCC(=O)N2CCCC2)cc1,"inconclusive: 2.82 µM [inhibitor, single point]"
12,NS(=O)(=O)c1ccc(NC(=S)Nc2ccc(S(=O)(=O)N3CCCC3)cc2)cc1,"inconclusive: 35.5 µM [inhibitor, single point]"
13,COc1ccc(Cl)cc1NC(=S)N(CCN1CCOCC1)C1CCN(C(C)=O)CC1,inactive
14,Cc1ccc2c(COC(=O)C3=COCCO3)cc(=O)oc2c1,"inconclusive: 1 µM [inhibitor, partial curve]"
15,CCOC(=O)C1=C(C)Nc2ncnn2C1c1ccccc1F (stereo not drawn),"inconclusive: 11.2 µM [inhibitor, partial curve]"
16,Cc1nc(CSc2nnc3scc(-c4ccc(Cl)cc4)n23)cs1,"inconclusive: 14.1 µM [inhibitor, partial curve, poor fit]"
17,C=C(C)Cn1c(CCn2c3ccccc3c3ccccc32)n[nH]c1=S,"inconclusive: 39.8 µM [inhibitor, single point]"
18,O=C1C=C(c2ccccc2)C[C@H](c2cccs2)[C@H]1n1nnc([N+](=O)[O-])n1,active: 10 µM
19,Cc1cccc(OCc2n[nH]c(=S)o2)c1,"inconclusive: 28.2 µM [inhibitor, partial curve]"
20,CN1CCCC2(CCN(C(=O)c3cccn3C)CC2)C1,inactive
21,Cc1ccc(OCCn2c(=O)n(C)c3ccccc32)cc1,"inconclusive: 39.8 µM [inhibitor, single point]"
22,CCOC(=O)c1ccc(C(=O)OCC)c(NC(=S)Nc2ccc([N+](=O)[O-])cc2OC)c1,"inconclusive: 28.2 µM [inhibitor, partial curve]"
23,CC(C)=CCN1CCN(Cc2cc(F)ccc2-n2nc(C)cc2C)CC1CCO (stereo not drawn),inactive

row,Structure (SMILES),Potency
1,CCN=C1Cn2c(nc3scc(-c4ccccc4)c3c2=O)CN1CC,"inconclusive: 39.8 µM [inhibitor, single point]"
2,Cc1ccc(NC(=O)Cn2c(=O)n(Cc3ccco3)c(=N)c3c4c(sc32)COC(C)(C)C4)cc1,"inconclusive: 22.4 µM [inhibitor, partial curve]"
3,Fc1cccc(NC(=S)NCc2ccccn2)c1,"inconclusive: 39.8 µM [inhibitor, single point]"
4,CC(=O)N1CCc2c(sc(NC(=O)CN3C(=O)CCC3=O)c2C(N)=O)C1,"inconclusive: 28.2 µM [inhibitor, single point]"
5,COc1ccccc1Oc1ccc2c(c1)C(=O)N(CC1CCCO1)C2=O (stereo not drawn),"inconclusive: 44.7 µM [inhibitor, single point]"
6,COc1ccc(CCN2C(=O)CC(NCc3ccc4c(c3)OCO4)C2=O)cc1OC (stereo not drawn),active: 25.1 µM
7,O=C1OCCC1Sc1nc2ccccc2c(=O)n1Cc1ccc(F)cc1 (stereo not drawn),"inconclusive: 35.5 µM [inhibitor, single point]"
8,Cc1cc(NC(=O)c2cc(-c3cccnc3)nc3c(C)c(C)ccc23)no1,"inconclusive: 28.2 µM [inhibitor, partial curve]"
9,O=C(c1ccco1)N1CCN(Cc2cn[nH]c2-c2ccc(F)cc2F)CC1,"inconclusive: 20 µM [inhibitor, partial curve]"
10,COc1ccccc1NS(=O)(=O)c1ccc(N/N=C/C=C/c2ccccc2[N+](=O)[O-])c([N+](=O)[O-])c1,"inconclusive: 2.82 µM [inhibitor, full curve, poor fit]"
11,Cc1ccc(C)c(-n2c(SCC(=O)NCC3CCCO3)nnc2-c2ccoc2C)c1 (stereo not drawn),"inconclusive: 25.1 µM [inhibitor, single point]"
12,Cc1csc(NC(=O)C(NC(=O)c2ccccc2F)C(C)C)n1 (stereo not drawn),inactive
13,O=c1c2sccc2nc(SCc2cc(=O)n3ccccc3n2)n1Cc1ccccn1,"inconclusive: 35.5 µM [inhibitor, single point]"
14,CCOc1cc(/C=N/NC(=O)c2cc(C)[nH]n2)ccc1OC(=O)c1ccc([N+](=O)[O-])cc1,"inconclusive: 39.8 µM [inhibitor, single point]"
15,Cc1onc(-c2ccccc2)c1C(=O)Nc1sc2c(c1C(N)=O)CCC2,"inconclusive: 11.2 µM [inhibitor, partial curve]"
16,CC(=O)C(C(C)=O)C1(O)C(=O)c2ccccc2C1=O,active: 1.58 µM
17,O=S(=O)(c1ccccc1)N1CCN(C(=S)NCc2ccccc2)CC1,"inconclusive: 31.6 µM [inhibitor, partial curve]"
18,CCC(C)NC(=O)Cn1cnc([N+](=O)[O-])c1 (stereo not drawn),inactive
19,O=[N+]([O-])c1ccc(S(=O)(=O)N(CCCN2CCOCC2)Cc2cccs2)cc1,"inconclusive: 39.8 µM [inhibitor, single point]"
20,CSc1ccc(CN(C)CC(=O)NCc2ccc(F)cc2)cc1,inactive
21,COC(=O)c1ccc(C(=O)OC)c(NC(=S)N2CCC(C(N)=O)CC2)c1,"inconclusive: 44.7 µM [inhibitor, single point]"
22,CCOC(=O)c1[nH]c(C)c(C(=O)N2CCc3c([nH]c4ccccc34)C2c2ccccn2)c1C (stereo not drawn),"inconclusive: 39.8 µM [inhibitor, single point]"
